Experimental data as given in PubChem BioAssay AID1508623 (National Center for Advancing Translational Sciences (NCATS), 2021).
Among all 48,000 compounds or so, about 450 (0.94%) were called active. Inconclusive results (about 19%) are left out. Calls come from the whole dose curve; as a rule, active = well fitted inhibition curve with a large enough effect; inconclusive = small, poorly fitted or top-dose-only effect; inactive = no such curve, though single readings can be large or run the other way. The list shows a part of the results.

assay: Primary qHTS for Identification of Small Molecule Inhibitors of Huntingtin Promoter Activity; settings: HEK293 HTT promoter firefly luciferase reporter (activity 0% = vehicle and -100% = no light), 24 h; series mostly up to 57.5 µM; activity change, negative = inhibition: at the top concentration; note: nearly all actives have a fitted effect of over 50% in size
In short: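 HEK293 luciferase promoter-reporter cells (2,500/well) plated 24 h, then compounds added at up to 57.5 uM final for 24 h at 37 °C. Firefly luminescence by Dual-Glo, normalized to vehicle (0%) and zero RLU (-100%).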

SMILES	activity change, negative = inhibition
Cn1c(=O)c(=O)n(C)c2cc(S(=O)(=O)N3CCCC3C(=O)Nc3cccc(F)c3)ccc21 (stereo not drawn)	inactive: 2.21%
Cc1ccn2c(Nc3ccccc3C)c(-c3ccncc3)nc2c1	inactive: 17.4%
Cc1ccc(CNC(=O)C2CCN(Cc3nc(-c4ccccc4C)oc3C)CC2)cc1	inactive: -6.57%
CN1CCN(c2c(F)cc3c(=O)c(C(=O)O)cn4c3c2OCN4C)CC1	inactive
CCN(CCN(C)C)C(=O)Cn1ncc2c([nH]c3ccc(C)cc32)c1=O	inactive: 6.86%
CCCCn1c(CN2CCN(c3ccc(OC)cc3)CC2)nc2c1c(=O)[nH]c(=O)n2C	inactive: -19%
Cc1cccc(NC(=O)CSc2nnc(CNC(=O)c3cccc(C)c3)n2-c2ccccc2)c1	inactive: -10.3%
COc1ccc(-c2noc(CN(C(=O)c3ccccc3Cl)C(C)C)n2)cc1	inactive: -24.7%
Cc1ccccc1Cn1c(-c2cccs2)nc2ccccc21	inactive: -14.8%
COC(=O)c1cc(Cl)c(NC(C)=O)cc1OC	inactive: 15.3%
Cc1ccc2nc(CSc3nnc(NC(=O)CC(C)C)s3)cc(=O)n2c1	inactive: -1.43%
CCOc1ccc(CNC(=O)CCC(=O)N2Cc3ccccc3Oc3ncccc32)cc1	inactive: 3.57%
Cc1ccc(Cn2c(CN3CCC(C(=O)NCc4cccnc4)CC3)cc3ccccc32)cc1	inactive: -4.84%
CC(=O)c1cccc(NC(=O)CCS(=O)(=O)c2ccc3c(c2)n(C)c(=O)c(=O)n3C)c1	inactive: -16.5%
COc1ccc(OC)c(NC(=O)CSc2c3c(nc4cc(Cl)ccc24)CCCC3)c1	inactive: 3.52%
NC(=O)CSc1nc2cc3c(cc2c(=O)n1CCCCCC(=O)NCc1ccc2c(c1)OCO2)OCO3	inactive: -9.65%
O=C(Nc1ccccc1C(F)(F)F)C1(S(=O)(=O)c2ccc(Cl)cc2)CC1	inactive: -7.19%
CN1CC(=O)N(CC(=O)Nc2cccc(C#N)c2)c2ccccc2C1=O	inactive: 16.7%
COc1ccc(OC)c(NC(=O)C2CCCN(S(=O)(=O)c3ccc4[nH]c(=O)ccc4c3)C2)c1 (stereo not drawn)	inactive: -9.6%
COc1ccc(-c2cn3c(n2)sc2cc(C(=O)NCC(C)c4ccccc4)ccc23)cc1 (stereo not drawn)	inactive: 4.51%
Cc1c(Cl)cccc1NC(=O)Nc1nnc(N(C)C2CCCCC2)s1	inactive: -2.46%

SMILES	activity change, negative = inhibition
Cc1ccc(CCNC(=O)c2cnc3c(C)cccn3c2=O)cc1	inactive: 0%
Cc1ccc(C(=O)c2cn(Cc3cc(C)ccc3C)c3nc(C)ccc3c2=O)cc1	inactive: -29.2%
CCCCCCNC(=O)CCc1c(C)nc2nc(-c3cc(OC)cc(OC)c3)nn2c1C	inactive: -16.2%
CCOCCCNC(=O)C(NC(=O)C1CCC(C)CC1)C(C)C (stereo not drawn)	inactive: -4.21%
CN(C1CCCCC1)S(=O)(=O)c1ccc2c(c1)c(=O)c(C(=O)N1CCN(c3ccc(F)cc3)CC1)cn2C	inactive: -12.4%
CCc1ccccc1NC(=O)c1nn(-c2ccc(C)cc2)c(=O)c2c1c1ccccc1n2C	inactive: -4.55%
CC(C)c1cc(C(=O)NCc2ccc(F)cc2)no1	inactive: 55.4%
CCS(=O)(=O)n1nc(-c2ccco2)nc1NCc1ccc(C(C)C)cc1	inactive: 0.937%
CC(=O)Nc1ccc(NC(=O)C(NC(=O)C2CCC(C)CC2)C(C)C)cc1 (stereo not drawn)	inactive: -19.7%
CN(C)CCOc1ccc(C(=C(CCCl)c2ccccc2)c2ccccc2)cc1	inactive: 1.07%
Cc1ccc(-n2cnc3cc(C(=O)NC4CCCCCC4)ccc32)c(C)c1	inactive: -29.5%
CCc1ccc(Cn2nnc3c(=O)[nH]c(C4CCCN(C(=O)c5cccc(Cl)c5)C4)nc32)cc1 (stereo not drawn)	inactive: -19.6%
O=C(Nc1ccc(F)cc1)c1ccc(CN2CC(=O)N3CCCCC3C2=O)cc1 (stereo not drawn)	inactive: -22%
Cc1cc(C)cc(NC(=O)Cn2nc(N3CCN(c4ccccc4)CC3)ccc2=O)c1	inactive: -13.7%
CC(C)c1ccc(OCC(=O)Nc2cc(-c3ccccc3)no2)cc1	inactive: 2.94%
COc1ccc(S(=O)(=O)NCCc2sc(-c3cccnc3)nc2C)cc1OC	inactive: 0.682%
COc1cc(CN(C(=O)c2ccccc2Br)c2ccccn2)cc(OC)c1OC	inactive: -16.2%
CCc1ccc(NC(=O)c2cccc(N3CCCS3(=O)=O)c2)cc1	inactive: -23.1%
CCOC(=O)c1ccc(N)cc1	inactive: -17%
CCN1CCSc2ccc(C(=O)NCc3ccc(F)cc3)cc21	inactive: -17.8%
CCN(CC)CCOC(=O)C(c1ccccc1)c1ccccc1	inactive: -0.377%

SMILES	activity change, negative = inhibition
OC(CCCN1CCCCC1)(c1ccccc1)c1ccccc1	inactive: -8.61%
CCc1cccc(NC(=O)Cc2nc(-c3ccc(OC)cc3)no2)c1	inactive: -14.6%
COCCCNC(=O)c1nn(C)c2c1CS(=O)(=O)c1ccccc1-2	inactive: -12.2%
COc1ccc(CNC(=O)CC2N=C3c4ccccc4N=C(SCC(=O)Nc4ccc(C(C)C)cc4)N3C2=O)cc1 (stereo not drawn)	inactive: 3.28%
COc1ccc(-c2cn3c(n2)sc2cc(C(=O)NC(C)C45CC6CC(CC(C6)C4)C5)ccc23)cc1 (stereo not drawn)	inactive: 33.2%
COCc1cc(C)nc2sc3c(c12)NC(c1ccccc1C(=O)O)N(c1cccc(C(F)(F)F)c1)C3=O (stereo not drawn)	inactive: 1.38%
COc1cc([N+](=O)[O-])ccc1NC(=O)c1nc2ccccc2n(C)c1=O	inactive: 7.52%
Cc1ccc(S(=O)(=O)c2nc(-c3cccc(Br)c3)oc2N2CCCCCC2)cc1	inactive: -16.7%
O=C(CSc1nnc2[nH]c(=O)cc(-c3ccccc3)n12)Nc1ccc(OC(F)(F)F)cc1	inactive: 18.7%
COc1cccc(N2CCN(C(=O)CCSCc3ccccc3F)CC2)c1	inactive: -25.1%
CCN(CC)c1cc(C)c2cc(NC(=O)c3cc(OC)cc(OC)c3)ccc2n1	inactive: -3.6%
CCOC(=O)C1CCN(S(=O)(=O)c2cc3c4c(c2)C(C)C(=O)N4CCC3)CC1 (stereo not drawn)	inactive: -20.2%
Cc1cc(=O)n(Cc2c(F)cccc2Cl)c2c1c(C)nn2-c1cccc(F)c1	inactive: 2.24%
O=C(Cc1ccc(Cl)cc1)NCC(c1cccs1)S(=O)(=O)c1ccccc1 (stereo not drawn)	inactive: -24.1%
CCCSc1ncc(Cl)c(C(=O)Nc2sc(C(C)=O)c(C)c2C(=O)OCC)n1	inactive: 14.9%
Cc1ccc(S(=O)(=O)N(CC(=O)Nc2ccc(F)cc2F)Cc2ccc(F)cc2)cc1	inactive: -28.3%
CC(=O)Nc1ccc(NC(=O)c2cc(CN3CCCC3)on2)cc1	inactive: 15.8%
Cc1ccc(C)c(NC(=O)CSc2nnc3[nH]c(=O)cc(-c4ccccc4)n23)c1	inactive: 18.9%
CCOc1ccc(NC(=O)Cn2c(=O)n(CC3CCC(C(=O)NCCc4ccccc4)CC3)c(=O)c3ccccc32)cc1 (stereo not drawn)	inactive: -8.54%
COc1ccc(NC(=O)CSc2oc(-c3ccco3)nc2S(=O)(=O)c2ccc(C)cc2)c(OC)c1	inactive: -23.1%
Cc1c(CNC(C)CCc2ccccc2)c(C(=O)O)c(C)n1Cc1ccc(F)cc1 (stereo not drawn)	inactive: -26.8%
